Test results taken from the RNAGym collection of RNA variant scans (doi:10.1093/nar/gkz1192).
Read counts are not given, so values of variants with three or more changes are uncertain.

B1: CPEB3 Ribozyme (parent)
chain: UAACAGGGGGCCACAGCAGAAGCGUUCACGUCGCAGCCCCUGUCAGAUUCUGGUGAAUCUGCGAAUUCUGCUGUAUAUCUC

Variants of: B1
Assay: self-cleavage, relative activity (ratio to wild type); higher = more cleavage; in vitro, sequencing
In short: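 After error-prone PCR and barcoding, CPEB3 ribozyme mutant libraries were transcribed with T7 RNA polymerase at 37°C for 5 hours, then given 15 min with DNase I before an EDTA stop, and they cleaved during both steps. Reverse transcription with template switching preceded Illumina sequencing. Relative activity divides a variant's cleaved/total read fraction by the unmutated ribozyme's. At least 5 reads were required per variant, and three batches were averaged.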

| Variant | self-cleavage |
| --- | --- |
| A3C A35G A65G A75G | 1.06 |
| A3C A35G U43A U51C U60C | 0.87 |
| A3C A35G U43C | 1.3 |
| A3C A35G U60C A64G | 1.2 |
| A3C A35U A47U U60A | 0.09 |
| A3C A35U A57G U69C U74A | 0.19 |
| A3C A45C G73A U76A | 0.89 |
| A3C A47G U48A | 0.68 |
| A3C A56G A64U | 0.42 |
| A3C A56G U78C U80C | 0.6 |
| A3C A56U U69A U76C | 0.33 |
| A3C A57C U60A C62U | 0.13 |
| A3C A64U U78G | 0.54 |
| A3C C4U G24A A28U A64G | 0.65 |
| A3C C12A C38U C40A A57C U67A | 0.08 |
| A3C C12U G16U U76C A77U | 0.58 |
| A3C C14G A18U A56G U60A U66C | 0.09 |
| A3C C17A A21G U41A U60C | 0.25 |
| A3C C17U U25C U26C U41G U69C | 0.09 |
| A3C C23A U72C | 0.15 |
| A3C C23G C29U | 0.14 |
| A3C C23G C50U U60A U78C | 0.04 |
| A3C C27A U41A U51C A56U | 0.11 |
| A3C C29A U60C | 0.47 |

| Variant | self-cleavage |
| --- | --- |
| A3C C29G A65G | 0.08 |
| A3C C29G U74C | 0.74 |
| A3C C32A U43C U54C | 0.22 |
| A3C C38U U51C A56G U67A G73A | 0.85 |
| A3C C38U U69C A75G | 0.38 |
| A3C C40A U41A A47U C68A U74C U78A | 0.17 |
| A3C C40U U67C | 0.15 |
| A3C C71U U76A | 0.91 |
| A3C G6A U67A | 0.08 |
| A3C G6C G70C U74C | 0.35 |
| A3C G7U A15U A45G U60C | 0.33 |
| A3C G7U A28U U58C | 0.06 |
| A3C G9A U31C | 0.46 |
| A3C G9C A28G A56G U74C | 0.09 |
| A3C G9C G53A G61C | 0.06 |
| A3C G9U A35C | 0.09 |
| A3C G10A A18G A21G | 0.07 |
| A3C G10A A18G A56G U74A | 0.08 |
| A3C G10C A21G U26C U78A | 0.34 |
| A3C G16C U48G C59A U78A | 0.27 |
| A3C G16U A18U G46U | 0.09 |
| A3C G16U C39G U49C A64G | 0.08 |
| A3C G19U U54C U69A | 0.32 |
| A3C G30A U31C | 0.55 |

| Variant | self-cleavage |
| --- | --- |
| A3C G36U U41A A64G | 0.16 |
| A3C G73A U80A | 1.22 |
| A3C U25A C59A A64G U80C | 0.21 |
| A3C U25C C39U U41A A45U | 0.36 |
| A3C U25C U31G U51A U72C | 0.08 |
| A3C U26A U31C | 1.19 |
| A3C U26C A28C A35U U60C G63A | 0.09 |
| A3C U26C A35G U41C U49A U51A A75U | 1.15 |
| A3C U26C U43C A64U | 0.21 |
| A3C U31A G52A A56G U60A A65U | 0.15 |
| A3C U31A U51G | 0.67 |
| A3C U31A U67A | 0.21 |
| A3C U31C G55U | 1.16 |
| A3C U31C U41C A57G U60C | 0.39 |
| A3C U41C U43A | 0.93 |
| A3C U41C U43C G55A | 0.22 |
| A3C U43A C62U | 0.34 |
| A3C U43A U54C G73U U80C | 1.3 |
| A3C U43C A47G A75G | 0.32 |
| A3C U43G G53A U69A | 0.32 |
| A3C U48A U51A U80C | 0.41 |
| A3C U48C U49A U66C | 0.21 |
| A3C U48C U69C U74C U80C | 0.59 |
| A3C U51C A64G | 1.56 |

| Variant | self-cleavage |
| --- | --- |
| A3C U58C U66C | 0.26 |
| A3C U60C U76C A77U | 0.73 |
| A3C U72A U78C | 1.14 |
| A3G A5C A15G G46A A47G A56G U78C | 0.55 |
| A3G A5C A28G C38U | 0.53 |
| A3G A5C A65G | 0.81 |
| A3G A5C G9A A28G | 0.63 |
| A3G A5C G33U | 0.38 |
| A3G A5C G55A | 0.55 |
| A3G A5C U26C U48A G52U U78A | 0.8 |
| A3G A5C U26C U49C U58C | 0.33 |
| A3G A5C U54C A77U | 1.09 |
| A3G A5G A13G G19A A28G U80C | 0.14 |
| A3G A5G A13G U51A U80C | 0.76 |
| A3G A5G A13G U72G U80C | 0.84 |
| A3G A5G A13U A28G U66C A75U | 0.17 |
| A3G A5G A13U A47G U60A A64G | 0.23 |
| A3G A5G A13U A56U | 0.72 |
| A3G A5G A15U | 0.85 |
| A3G A5G A15U A18U A57G | 0.19 |
| A3G A5G A15U C50U A77G | 0.57 |
| A3G A5G A15U G42U U48C | 0.38 |
| A3G A5G A15U U41A U72C | 0.37 |
| A3G A5G A18G C71U U80C | 0.56 |

| Variant | self-cleavage |
| --- | --- |
| A3G A5G A20U | 1.02 |
| A3G A5G A20U U31C U72C U78G | 0.11 |
| A3G A5G A21G C34U U49C A64G A77C | 0.28 |
| A3G A5G A21G U26C U31C C37U A45U | 0.07 |
| A3G A5G A21G U51C U69A | 0.35 |
| A3G A5G A21U A45U | 0.48 |
| A3G A5G A28G | 0.58 |
| A3G A5G A28U U31C U41A U43A G70C | 0.2 |
| A3G A5G A35C U43C U69C | 0.39 |
| A3G A5G A35C U69C U72C | 0.1 |
| A3G A5G A35G A47G | 1.09 |
| A3G A5G A45U U49A | 0.64 |
| A3G A5G A56G U60A A65G | 0.71 |
| A3G A5G C12A U43C U72C U74G | 0.24 |
| A3G A5G C12U A15G A20U | 0.2 |
| A3G A5G C23G A28G U58A | 0.18 |
| A3G A5G C23U A28G U60C U80C | 0.4 |
| A3G A5G C29G A45U | 0.14 |
| A3G A5G C37U U54C A57G | 0.54 |
| A3G A5G C40U A45G U49A A64U | 0.11 |
| A3G A5G G6A A35U U69A | 0.13 |
| A3G A5G G6U A21U U51C U54A | 0.13 |
| A3G A5G G9A A21U A35G U49C U78A | 0.34 |
| A3G A5G G9A C39A | 0.14 |

| Variant | self-cleavage |
| --- | --- |
| A3G A5G G33A U43C G70C | 0.25 |
| A3G A5G G61A U69A U78C | 0.25 |
| A3G A5G U25C U60G A75U U80C | 0.07 |
| A3G A5G U26A U41C U67A | 0.14 |
| A3G A5G U26C A57C U66C | 0.21 |
| A3G A5G U31A A35G G52U A64G U80A | 0.99 |
| A3G A5G U31A U48A U58C | 0.2 |
| A3G A5G U31C A57G U72A | 0.2 |
| A3G A5G U43A | 0.64 |
| A3G A5G U49C A56U A65G | 0.15 |
| A3G A5G U49C U72A | 0.28 |
| A3G A5G U51C | 0.83 |
| A3G A5G U51C U60C | 0.25 |
| A3G A5G U60A U76C U78A | 0.15 |
| A3G A5G U69A | 0.55 |
| A3G A5G U72A | 0.56 |
| A3G A5G U72C | 0.96 |
| A3G A5U A13G U41A U51A | 0.17 |
| A3G A5U A15G A20G A21U G22C U58C | 0.74 |
| A3G A5U A15G U26A A45U U60C | 0.16 |
| A3G A5U A15U | 1.04 |
| A3G A5U A18G U43G U78C | 0.07 |
| A3G A5U A18U G70C | 0.21 |
| A3G A5U A18U U67C | 0.16 |

| Variant | self-cleavage |
| --- | --- |
| A3G A5U A20G U67C U74A | 1.24 |
| A3G A5U A21G | 0.79 |
| A3G A5U A21G U54C | 1.02 |
| A3G A5U A28U U41C U66C | 0.36 |
| A3G A5U A47C G55A U72C A75U U80C | 0.31 |
| A3G A5U A56G A57G | 0.43 |
| A3G A5U A75G | 0.93 |
| A3G A5U C12U U67A | 0.96 |
| A3G A5U C12U U76C U78C | 1.2 |
| A3G A5U C14U C40U U51A | 0.77 |
| A3G A5U C40U U51C U54G C68A | 0.18 |
| A3G A5U C62U A65G | 0.3 |
| A3G A5U G7A A21U U25G U31A U78C | 0.21 |
| A3G A5U G7U U69C U74C | 0.1 |
| A3G A5U G8U U31C U51C U72C | 0.11 |
| A3G A5U G9C U41C C79U | 0.13 |
| A3G A5U G9U C50U C71A U78C | 0.04 |
| A3G A5U G22C U31C | 0.26 |
| A3G A5U G22C U31C U51C | 0.49 |
| A3G A5U G24C U80C | 0.16 |
| A3G A5U G24U G63A U72C A77G | 0.1 |
| A3G A5U G33A | 0.58 |
| A3G A5U G33A A56G U58G U78C | 0.1 |
